Laboratory results: publication PMC12405630
Positions count from the first letter of the chain named. In names and notes the source's numbering stands. These are yes or no findings as the source states them, for the method shown. Binding seen in cells or lysates may run through a third protein. Some entries that bind do so weakly or less than the wild type. For some assays here: Where a sequence is shown, tags or fusion partners need not be part of it.

Amino acid sequences for entries named in this document (tags omitted).
UniProt Q99500: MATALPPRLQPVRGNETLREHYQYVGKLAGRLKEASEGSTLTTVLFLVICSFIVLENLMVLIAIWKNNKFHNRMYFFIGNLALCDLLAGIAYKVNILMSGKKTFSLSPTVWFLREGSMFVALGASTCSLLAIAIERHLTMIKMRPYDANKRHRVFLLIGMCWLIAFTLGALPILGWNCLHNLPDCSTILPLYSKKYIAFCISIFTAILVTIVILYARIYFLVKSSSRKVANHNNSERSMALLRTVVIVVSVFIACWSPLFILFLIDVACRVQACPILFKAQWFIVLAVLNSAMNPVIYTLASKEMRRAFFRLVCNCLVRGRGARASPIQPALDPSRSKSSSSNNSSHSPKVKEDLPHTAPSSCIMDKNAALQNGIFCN
UniProt O95136: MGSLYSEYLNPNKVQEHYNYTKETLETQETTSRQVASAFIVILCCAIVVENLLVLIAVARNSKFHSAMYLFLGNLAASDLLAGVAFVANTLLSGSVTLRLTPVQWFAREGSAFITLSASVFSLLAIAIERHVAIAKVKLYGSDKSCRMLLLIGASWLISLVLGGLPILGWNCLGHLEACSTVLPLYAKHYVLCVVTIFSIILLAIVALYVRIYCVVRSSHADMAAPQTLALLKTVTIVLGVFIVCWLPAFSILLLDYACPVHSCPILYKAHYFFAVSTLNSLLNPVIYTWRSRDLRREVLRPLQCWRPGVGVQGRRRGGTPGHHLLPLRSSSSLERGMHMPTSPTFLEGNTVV
UniProt P50148: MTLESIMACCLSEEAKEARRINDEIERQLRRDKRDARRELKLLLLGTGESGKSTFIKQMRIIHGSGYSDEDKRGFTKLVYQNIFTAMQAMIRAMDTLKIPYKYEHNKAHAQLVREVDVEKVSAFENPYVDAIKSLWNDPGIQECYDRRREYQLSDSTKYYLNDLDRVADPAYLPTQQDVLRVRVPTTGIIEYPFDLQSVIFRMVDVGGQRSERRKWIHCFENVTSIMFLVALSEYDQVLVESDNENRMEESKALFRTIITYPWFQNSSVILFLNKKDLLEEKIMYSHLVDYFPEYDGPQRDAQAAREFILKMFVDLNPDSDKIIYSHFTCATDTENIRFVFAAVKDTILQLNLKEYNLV

Legend:
RGS2-Luc = target: T1, RGS2-Luc (UniProt P41220); assay: FRET or BRET; competition: live 293T cells with RGS2-Luc and S1P2-Venus or S1P3-Venus, along with untagged S1P2 or S1P3
T1 sequence: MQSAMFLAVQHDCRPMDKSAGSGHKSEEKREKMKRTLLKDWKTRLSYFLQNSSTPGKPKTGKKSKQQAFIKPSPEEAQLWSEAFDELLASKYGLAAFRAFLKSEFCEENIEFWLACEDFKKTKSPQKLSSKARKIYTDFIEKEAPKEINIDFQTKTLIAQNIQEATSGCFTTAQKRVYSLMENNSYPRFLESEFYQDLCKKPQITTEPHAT

S1P3-Luc [1] = target: S1P3-Luc (UniProt Q99500); assay: FRET or BRET; live HCT116 cells; S1P2-Luc or S1P3-Luc donor (0.03 ug) with Gα-YFP acceptor (2.0 ug) and untagged RGS2 (0.5 ug) co-expressed; with or without agonist
S1P2-Luc [2] = target: S1P2-Luc (UniProt O95136); assay: as above
S1P3-Luc [3] = target: S1P3-Luc (UniProt Q99500); assay: FRET or BRET; live HCT116 cells; S1P2-Luc or S1P3-Luc donor (0.03 ug) with Gα-YFP acceptor (2.0 ug), no RGS2 co-expressed; with or without agonist
S1P2-Luc [4] = target: S1P2-Luc (UniProt O95136); assay: as above
S1P3-Luc [5] = target: S1P3-Luc (UniProt Q99500); assay: FRET or BRET; live 293T cells; S1P2-Luc or S1P3-Luc donor (0.03 ug plasmid) with RGS-Venus acceptor (0-2.0 ug); also with Gα^EE isoforms co-expressed and with or without agonist (CYM5520, CYM5541); net BRET, coelenterazine H 5 uM, Tyrode's solution pH 7.4
S1P2-Luc [6] = target: S1P2-Luc (UniProt O95136); assay: as above
S1P3-Luc [7] = target: S1P3-Luc (UniProt Q99500); assay: FRET or BRET; live HCT116 cells; S1P2-Luc or S1P3-Luc donor (0.03 ug) with RGS1-Venus or RGS2-Venus acceptor (2.0 ug); also with Gα isoforms co-expressed and with or without agonist
S1P2-Luc [8] = target: S1P2-Luc (UniProt O95136); assay: as above
S1P3-Venus [9] = target: S1P3-Venus (UniProt Q99500); assay: FRET or BRET; competition: live 293T cells with RGS2-Luc and S1P2-Venus or S1P3-Venus, along with untagged S1P2 or S1P3
S1P2-Venus [10] = target: S1P2-Venus (UniProt O95136); assay: as above
S1P3-Venus [11] = target: S1P3-Venus (UniProt Q99500); assay: co-IP; 293T cells cotransfected with RGS1-Luc or RGS2-Luc and S1P2-Venus or S1P3-Venus; lysis in PBS with 1% Triton X-100; immunoprecipitation with anti-GFP, blot with Renilla luciferase antibodies
S1P2-Venus [12] = target: S1P2-Venus (UniProt O95136); assay: as above
S1P3-Venus [13] = target: S1P3-Venus (UniProt Q99500); assay: FRET or BRET; live 293T cells; RGS-Luc donor (0.03 ug plasmid) with S1P2-Venus or S1P3-Venus acceptor (0-2.0 ug), or Lyn-YFP as acceptor (also with untagged S1P2 or S1P3 co-expressed, with or without receptor stimulation); net BRET, coelenterazine H 5 uM, Tyrode's solution pH 7.4
S1P2-Venus [14] = target: S1P2-Venus (UniProt O95136); assay: as above
[15] = target: S1P3 (endogenous, HCT116) (human (endogenous in HCT116)) (UniProt Q99500); assay: co-IP; untransfected HCT116 cells, with or without agonist; lysis in PBS with 1% Triton X-100; immunoprecipitation with antibodies against S1P2 or S1P3, blot with anti-RGS1 and anti-RGS2
[16] = target: S1P2 (endogenous, HCT116) (human (endogenous in HCT116)) (UniProt O95136); assay: as above

**Q.** Which binding (RGS2-Luc) does the source give for “untagged S1P2 (from UniProt O95136 1-353) (receptor)” here?
**A.** The binding was “binds”.

**Q.** How did the binding (S1P3-Luc [1]) turn out when Gαq-YFP (from UniProt P50148 1-359) was run?
**A.** Its binding is “binds”.

**Q.** What about the binding (S1P2-Luc [2]) of the same molecule?
**A.** Its binding is “binds”.

**Q.** And the binding (S1P3-Luc [3])?
**A.** Its binding is “binds”.

**Q.** What about the binding (S1P2-Luc [4]) of the same molecule?
**A.** The binding was “binds”.

B1: RGS2-Venus (protein, UniProt P41220 1-211)
chain: T1 sequence
**Q.** Which binding (S1P3-Luc [5]) does the source give for B1 here?
**A.** Its binding is “binds”.

**Q.** And the binding (S1P2-Luc [6])?
**A.** The binding was “binds”.

**Q.** What about the binding (S1P3-Luc [7]) of the same molecule?
**A.** Its binding is “binds”.

**Q.** And the binding (S1P2-Luc [8])?
**A.** Its binding is “binds”.

B2: RGS2^S179D (protein, UniProt P41220 1-211)
chain: T1 sequence with S179D
**Q.** Which results are given for B2?
**A.** binding (S1P3-Luc [5]): binds; binding (S1P2-Luc [6]): binds

B3: RGS2-Luc (protein, UniProt P41220 1-211)
chain: T1 sequence
**Q.** What does the source list for B3?
**A.** binding (S1P3-Venus [9]): binds; binding (S1P2-Venus [10]): binds; binding (S1P3-Venus [11]): binds; binding (S1P2-Venus [12]): binds; binding (S1P3-Venus [13]): binds; binding (S1P2-Venus [14]): binds

B4: RGS2 (endogenous, HCT116) (protein, UniProt P41220 1-211)
chain: T1 sequence
**Q.** Which binding [15] does the source give for B4 here?
**A.** The binding was “binds”.

**Q.** What about the binding [16] of the same molecule?
**A.** The binding was “binds”.

B5: RGS1-Venus (protein, UniProt Q08116 1-209)
chain: MRAAAISTPKLDKMPGMFFSANPKELKGTTHSLLDDKMQKRRPKTFGMDMKAYLRSMIPHLESGMKSSKSKDVLSAAEVMQWSQSLEKLLANQTGQNVFGSFLKSEFSEENIEFWLACEDYKKTESDLLPCKAEEIYKAFVHSDAAKQINIDFRTRESTAKKIKAPTPTCFDEAQKVIYTLMEKDSYPRFLKSDIYLNLLNDLQANSLK
**Q.** For B5, which binding (S1P3-Luc [5]) is on record?
**A.** The binding was “no binding”.

**Q.** And the binding (S1P2-Luc [6])?
**A.** The binding was “no binding”.

**Q.** What about the binding (S1P3-Luc [7]) of the same molecule?
**A.** The binding was “no binding”.

**Q.** And the binding (S1P2-Luc [8])?
**A.** Its binding is “no binding”.

B6: RGS1-Luc (protein, UniProt Q08116 1-209)
chain: B5 chain
**Q.** For B6, which binding (S1P3-Venus [11]) is on record?
**A.** The binding was “no binding”.

**Q.** What about the binding (S1P2-Venus [12]) of the same molecule?
**A.** The binding was “no binding”.

**Q.** What about the binding (S1P3-Venus [13]) of the same molecule?
**A.** Its binding is “no binding”.

**Q.** And the binding (S1P2-Venus [14])?
**A.** The binding was “no binding”.

B7: RGS1 (endogenous, HCT116) (protein, UniProt Q08116 1-209)
chain: B5 chain
**Q.** With B7 as the molecule, how does the binding [15] read?
**A.** Its binding is “no binding”.

**Q.** What about the binding [16] of the same molecule?
**A.** Its binding is “no binding”.
